Drawing on ChEMBL document CHEMBL1156829, this text covers IFI for 49 molecules.

Each structure is given as a SMILES string. In all, about 5,400 compounds were measured (“IFI”: median about 2, highest 2% from about 22 on). Some of the results follow.

The assay can be described thus: NOVARTIS: Inhibition Frequency Index (IFI) - the number of HTS assays where a compound showed > 50% inhibition/induction, expressed as a percentage of the number of assays in which the compound was tested. Type of assay: functional.
`C=CC(C)(CCC=C(C)C)c1ccc2c3c(c[nH]c13)CC(CO)NC(=O)C(C(C)C)N2C` (centres undefined) showed an IFI of 11.3%.
The same measure for `CC[C@@H]1CN2CC[C@H]1C[C@H]2[C@H](O)c1ccnc2ccc(OC)cc12`: 1.32%; for `COc1ccc(NC2=C(N3CCCCC3)C(=O)c3ccccc3C2=O)cc1`: 18.7%.
For `C=CCN1C(=O)/C(=C\c2cc(Cl)c(O)c(OC)c2)C(=O)NC1=S`, the IFI came out at 7.69%.
`C=C[C@H]1CN2CC[C@H]1C[C@@H]2[C@@H](OC(=O)c1cccs1)c1ccnc2ccccc12` showed an IFI of 2.78%.
In the case of `COc1ccccc1-n1c(/C=C/c2cc(Br)ccc2O)nc2ccccc2c1=O`, the IFI was 8.06%.
The same measure for `CC1(C)CN=C(NCc2ccccc2Cl)S1`: 0%.
To `C=C[C@H]1CN2CC[C@H]1C[C@@H]2[C@@H](OC(=O)c1ccc(OC)cc1)c1ccnc2ccccc12` belongs 3%; to `C=CC1(O)CN2CCC1CC2[C@@H](O)c1ccnc2ccc(OC)cc12` (some centres undefined), 3.57%; to `CCN(CC)S(=O)(=O)c1ccc(C(=O)c2c(C)c(C(=O)C(F)(F)F)c3ccccn23)cc1`, 3.12%.
The same measure for `C=CC1CN2CCC1CC2C(O)c1ccnc2ccccc12` (centres undefined): 0.781%.
In turn, `O=C(c1ccc([N+](=O)[O-])o1)N1CCN(c2cccc(Cl)c2)CC1` came in with an IFI of 4.71%.
The same measure for `CC(=O)N(C1=C(N(C)C)C(=O)c2ccccc2C1=O)c1ccc(F)c(F)c1`: 23.1%; for `CC(=O)N(C1=C(N(C)C)C(=O)c2ccccc2C1=O)c1ccc(Cl)cc1`: 0%.
To `CCOc1ccc2nccc([C@@H](O)[C@@H]3C[C@@H]4CCN3C[C@@H]4CC)c2c1` belongs 3.82%.
To `CC[C@H]1CN2CCc3cc(OC)c(OC)cc3[C@@H]2C[C@@H]1C[C@@H]1NCCc2cc(OC)c(OC)cc21` belongs 37%.
Consider `CN1CCc2cc3c(c4c2C1Cc1ccccc1-4)OCO3` (centres undefined), for which the IFI came to 6.17%.
For the molecule `C/C=C1/C[C@H]2[C@@H](OC)Nc3cc(O)c(OC)cc3C(=O)N2C1`, the IFI was found to be 28.6%.
The same measure for `CC[C@H]1CN2CC[C@H]1C[C@H]2[C@H](O)c1ccnc2ccccc12`: 5.17%; for `CCSc1nc2sc3c(c2c(=O)n1-c1ccccc1)CCN(Cc1ccccc1)C3`: 2.84%; for `c1ccc2c(c1)ccc[n+]2CCCCCC[n+]1cccc2ccccc21`: 0%.
The same measure for `CC1CCC2C(C)C(=O)OC3OC(C)C4CC1C32OO4` (centres undefined): 7.14%.
Molecule `CCN1CCC(N2CCC(n3c(Cc4ccccc4OC)nc4cc(F)ccc43)CC2)CC1` returned an IFI of 1.7%.
To `COc1ccc(C(Cc2ccccc2)NC2CN3CCC2CC3)cc1` (centres undefined) belongs 0%.
To `CCC1CN2CCC1CC2C(O)c1ccnc2ccccc12` (centres undefined) belongs 0%; to `COc1ccc(-c2ccc(C=C3C(=O)NC(=S)NC3=O)o2)cc1Cl`, 7.14%; to `CCN1CCN(c2c(Cl)cccc2NC(=O)C(Cl)(Cl)Cl)CC1`, 0%.
The same measure for `CC1=CC[C@@H](/C(C)=C/c2csc(C)n2)OC(=O)C[C@H](O)C(C)(C)C(=O)[C@H](C)[C@@H](O)[C@@H](C)CCC1`: 5.66%; for `NC(=N[N+](=O)[O-])Nc1ccc(NC(=O)Nc2ccc(Cl)cc2)cc1`: 2.86%; for `CN1CCN(c2nc(Cl)nc3[nH]cnc23)CC1`: 0.699%.
With `CCCCCCc1cc(O)c2c(c1)OC(C)(C)C1=C2CCN(C)C1`, the IFI stood at 5.77%.
The same measure for `NC(=O)Oc1ccc(Cc2ccccc2)cc1`: 0%; for `Cc1ccn2c(NC(C)(C)CC(C)(C)C)c(-c3ccccc3OC(=O)N(C)C)nc2c1`: 4.72%.
To `O[C@@]1(c2cc3ccccc3s2)CN2CCC1CC2` belongs 1.63%; to `C[C@H]1C[C@H](C)C(=O)[C@@H]([C@@H](O)CC2CC(=O)NC(=O)C2)C1`, 23.9%.
To `O=c1c2ccccc2nc(/C=C/c2ccc([N+](=O)[O-])o2)n1-c1ccc(Br)cc1` belongs 0%; to `NC(=O)Cc1ccccc1`, 2.04%.
Turning to `CCC1CC2CCC(O2)C(C)C(=O)OC(C)CC2CCC(O2)C(C)C(=O)OC(CC)CC2CCC(O2)C(C)C(=O)OC(C)CC2CCC(O2)C(C)C(=O)O1` (centres undefined), the IFI was determined as 24.1%.
To `c1ccc(C2=NN(c3ccccc3)N(c3ccccc3)N2)cc1` belongs 9.09%; to `CN(C)C(=O)O[n+]1ccc(N(C)C)cc1`, 0%.
Regarding `O=C1C=C(Nc2cccc(C(F)(F)F)c2)C(=O)c2ccccc21`, the IFI was 7.04%.
The same measure for `COc1ccc2c(c1)CC1c3c(cc4c(c3-2)OCO4)CCN1C` (centres undefined): 25%.
To `C=CC1CN2CCC1CC2[C@@H](OC(=O)c1ccc(C(C)(C)C)cc1)c1ccnc2ccc(OC)cc12` (some centres undefined) belongs 0%; to `CCOC(=O)CN(N=O)C1=C(N2CC2)C(=O)c2ccccc2C1=O`, 30.8%; to `C=CC1CN2CCC1CC2[C@@H](OC(=O)c1cc([N+](=O)[O-])cc([N+](=O)[O-])c1)c1ccnc2ccc(OC)cc12` (some centres undefined), 0%.
The same measure for `c1ccc(CCNC2CCN(Cc3ccccc3)CC2)cc1`: 0%; for `C=CC1CN2CCC1CC2[C@@H](OC(=O)/C=C/c1ccc(Cl)cc1)c1ccnc2ccc(OC)cc12` (some centres undefined): 0%.
Consider `COc1ccc(C=NNc2ccnc3cc(Cl)ccc23)cc1`, for which the IFI is 4.8%.
The same measure for `CCOc1c(Cl)cc(CNC(C)C(O)c2ccccc2)cc1OC` (centres undefined): 0%.
